Results reported in paper PMC6919601, “Identification of Plasmodium dipeptidyl aminopeptidase allosteric inhibitors by high throughput screening” (PLoS ONE, 2019).
Several values for one entry are separate records, joined by “and”; a condition that tells them apart may be missing. Equal values may be shown once. Screen size: about 110,000 compounds; about 230 (0.21%) showed an effect of 50% or more. The list shows a part of the results.

These compounds were tested against DPAP1 (Plasmodium falciparum, UniProt Q8IIJ9) (assay: primary screen, percent inhibition; read by cleavage of a fluorogenic dipeptide substrate; higher = more effect of the substance).
Parameters: species or system P. falciparum D10 trophozoite lysates; single well
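Also: 30 min substrate incubation versus DMSO and 10 µM JCP410 controls.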

Chain of DPAP1 (Q8IIJ9 whole entry, looked up): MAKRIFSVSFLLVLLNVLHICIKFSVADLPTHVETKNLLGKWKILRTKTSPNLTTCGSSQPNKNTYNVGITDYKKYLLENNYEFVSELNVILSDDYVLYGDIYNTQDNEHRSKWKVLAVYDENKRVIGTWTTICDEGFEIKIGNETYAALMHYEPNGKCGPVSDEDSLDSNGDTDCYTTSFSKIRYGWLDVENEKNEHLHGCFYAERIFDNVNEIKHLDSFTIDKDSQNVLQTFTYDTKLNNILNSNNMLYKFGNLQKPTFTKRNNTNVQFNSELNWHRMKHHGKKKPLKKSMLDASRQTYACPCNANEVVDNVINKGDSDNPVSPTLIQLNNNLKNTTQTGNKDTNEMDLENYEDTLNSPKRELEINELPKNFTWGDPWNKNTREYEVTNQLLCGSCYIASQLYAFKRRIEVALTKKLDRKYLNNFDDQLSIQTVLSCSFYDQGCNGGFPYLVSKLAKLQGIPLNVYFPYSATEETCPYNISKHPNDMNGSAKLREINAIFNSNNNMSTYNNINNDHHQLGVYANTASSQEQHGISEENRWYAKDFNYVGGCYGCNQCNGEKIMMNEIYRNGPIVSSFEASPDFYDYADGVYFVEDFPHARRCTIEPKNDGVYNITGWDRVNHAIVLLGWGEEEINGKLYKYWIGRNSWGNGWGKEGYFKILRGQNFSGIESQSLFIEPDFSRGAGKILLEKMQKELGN

Structure (SMILES)	% Inhibition @ 10 uM
Cn1c(=O)c2c(nc(Sc3nc4ccccc4n3Cc3ccccc3)n2C)n(C)c1=O	-2.4%
CC(C)NC(=O)c1ccc2nc(SCc3ccc(F)cc3)n(C)c2c1	-9.67%
Cc1ccc(CCNC(=O)C2=Cc3sc(C)c(C)c3CS2)cc1	3.22%
O=C1NC(=O)C2(C(=O)N1)C(c1cccs1)NC(=S)NC2c1cccs1 (stereo not shown)	6.03%
COC(=O)CCNC(c1ccccc1)c1ccccc1	1.64%
CC(=O)N1CN(C2CCCC2)Cc2c1sc1c2CCCC1	-2.94%
Cn1nc(C(=O)N2CCC(N3CCCCC3)CC2)c2c1-c1ccccc1S(=O)(=O)C2	5.04%
O=C(Cn1c(=O)c2cccn2c2cccnc21)NC1CCN(Cc2ccccc2)CC1	2.6%
CCc1ccc(CN(C(=O)c2nc(S(=O)(=O)CC)ncc2Cl)C2CCS(=O)(=O)C2)cc1 (stereo not shown)	-2.85%
Cc1nc2c(-c3ccc(F)cc3)c(C)nn2c(C)c1CCC(=O)NCc1ccc2c(c1)OCO2	-0.465%
CCCCN(CCCC)S(=O)(=O)c1ccc(N2CCCC2=O)c([N+](=O)[O-])c1	-7.42%
CCn1ncc(Br)c1C(=O)NC1CCCCCCC1	-1.57%
O=C(NCCN1CCc2ccccc2C1)C1CCN(S(=O)(=O)N2CCC3(CC2)OCCO3)CC1	0.514%
Cc1ccc(S(=O)(=O)N(C)c2ccc(C(=O)Nc3ccc4c(c3)OCCO4)cc2)cc1	0.161%
COc1ccccc1CNCc1ccccc1C	3.44%
N#C/C(=C\c1ccc(Br)o1)c1nc(-c2ccccc2)cs1	0.247%
Cc1cc(NC(=O)CSc2cn(CC(=O)N3CCOCC3)c3ccccc23)no1	-0.264%
CCN(CC)CCCOc1cccc(C)c1C	2.05%
O=S(=O)(NC(c1cccs1)C(Cl)(Cl)Cl)c1ccccc1 (stereo not shown)	15.6%
Fc1ccc(CN2CCc3c([nH]c4ccccc34)C2)cc1	1.48%
Cc1nn(C)c2c1c(-c1ccccc1)cc(=O)n2C(C)C(=O)NCc1ccc2c(c1)OCO2 (stereo not shown)	0.234%
CCOc1ccc(/C=C2/C=C(c3ccc(C)cc3)OC2=O)cc1OC	1.84%
CC(C)CCNC(=O)c1cc2sccc2n1C	-8.58%
COc1cc(Cl)c(C)cc1NC(=O)c1ccccc1Cl	-3.16% and -2.29%
CN1CCC(NC2CCN(Cc3ccccc3)CC2)CC1	3.19%

Structure (SMILES)	% Inhibition @ 10 uM
CN(C)/C=C/C=C/C=C/C1=[N+](C)c2ccccc2C1(C)C	1.31%
O=S(=O)(Nc1ccc(-c2cn3ccsc3n2)cc1)c1ccc2ccccc2c1	6.24%
Cc1ccc(SCc2n[nH]c3c2C(c2ccc(C)o2)C(C#N)=C(N)O3)cc1 (stereo not shown)	-4.49%
CCOc1ccc2ncc(S(=O)(=O)c3ccc(F)cc3)c(O)c2c1	-5.49%
Cc1ccc2c(=O)cc(C(=O)Nc3sc4c(c3C#N)CCCC4)oc2c1C	0.248%
CN(C)c1ccc(/C=C2\SC(N3CCCC3)=NC2=O)cc1	-1.98%
CCCc1[nH]nc2c1C(c1ccc(OCCN3CCOCC3)c(OC)c1)C(C#N)=C(N)O2 (stereo not shown)	-6.36%
CN1C(c2ccccc2)CC(O)CC1c1ccccc1 (stereo not shown)	2%
CC1=CC(C)(C)N(Cc2ccc([N+](=O)[O-])cc2)c2cc(C)ccc21	-3.93%
O=C(O)CCc1nnc2ccc(Cl)nn12	0.708%
CCOc1ccc(C(=O)NC2CCCCC2)cc1	15.2%
Cc1noc2ncnc(NCC3CCN(Cc4ccc(Cl)cc4)CC3)c12	-0.171%
COc1ccccc1-n1c(C)c(C(=O)O)c2cc(OC)c3ccccc3c21	-0.467%
N#CC1=C(N)Oc2[nH]nc(-c3ccccc3)c2C1c1ccc(Cl)s1 (stereo not shown)	0.851%
Cc1cccc(Cn2c(SCc3ccc(C(=O)O)cc3)nc3cccnc32)c1	7.75%
CC(=O)N1CCC(NC(c2ccccc2)c2ccccc2)CC1	-1.86%
CC(C)Cc1nc2ccccc2n1Cc1ccccc1	7.28%
COc1ccc(C2Nn3c(nnc3-c3ccccc3)SC2C(=O)N2C(C)CCCC2C)cc1 (stereo not shown)	-9.37%
Clc1ccc2c(Sc3cccc4cccnc34)ccnc2c1	1%
COc1ccc2nc3oc(C(=O)NCc4cccnc4)cc3cc2c1	5.1%
CN(C)CCCN1C(=O)C(O)=C(C(=O)c2ccc(S(=O)(=O)N(C)C)cc2)C1c1ccccc1 (stereo not shown)	0.487%
CCCC1=NN2C(=N)/C(=C\c3ccc(SCc4ccco4)o3)C(=O)N=C2S1	0.458%
COc1ccc(OC)c(CNc2ccccc2)c1	-7.08%
O=C(CCCn1ncn2c(cc3occc32)c1=O)NCc1cccc(Cl)c1	-5.63%
N#C/C(=C/c1ccco1)c1nc(-c2cc3ccccc3oc2=O)cs1	-2.47%

Structure (SMILES)	% Inhibition @ 10 uM
CCN1CCc2c(sc(N)c2C(N)=O)C1	3.65%
Cc1ccc(S(=O)(=O)N2CCC(C(=O)N3CCN(C)CC3)CC2)cc1	-1.17%
COc1ccc(S(=O)(=O)/N=C2\C=CC(=O)c3ccccc32)cc1	5.12%
O=C(O)C(Cc1ccccc1)N1C(=O)C2C3c4ccccc4C(c4ccccc43)C2C1=O (stereo not shown)	3.29%
COc1ccc2ccccc2c1/C=C(\C#N)C(=O)NCCc1ccccc1	-3.78%
CCOc1ccc(NC(=O)CSc2ncccn2)cc1	-3.37%
O=C1c2ccccc2-c2ncnc3ccc(Cl)c1c23	3.9%
O=C(Cc1ccccc1)NCc1nnc(SCC(=O)Nc2nccs2)n1-c1ccc(F)cc1	2.12%
COc1cc2nc(S)nc(NCCNC(C)=O)c2cc1OC	4.01%
CN1CCN(C2Cc3ccccc3Sc3c(O)cccc32)CC1 (stereo not shown)	0.59%
Cc1ccc(C(=O)Nc2cccc3cccnc23)cc1C	-0.884%
COc1cc(CCC(=O)Nc2noc3ccccc23)cc(OC)c1OC	-1.11%
CCC(CC)c1nc(C#N)c(NCc2ccccc2)o1	-1.84%
CCN1C(=O)/C(=C\c2ccccc2O)C(C(=O)OC)=C1C	-7.18%
CC(=O)Nc1ccc(NC(=O)c2ccc([N+](=O)[O-])o2)cc1	0.98%
O=S1(=O)CCC(NS(=O)(=O)C2CCS(=O)(=O)C2)C1 (stereo not shown)	-6.29%
CC(C(=O)N1CCN(c2ccccc2)CC1)N(c1ccccc1)S(C)(=O)=O (stereo not shown)	2.44%
CCN(CC)CCCNC(=O)C(C)Sc1nc(-c2ccccc2)cc(C(F)(F)F)n1 (stereo not shown)	4.08%
O=C(CC(NCCN1CCOCC1)C(=O)O)Nc1ccc(Cl)cc1Cl (stereo not shown)	-1.51%
CC1(C)OC[C@@H]([C@H](O)P(=O)(c2ccccc2)c2ccccc2)O1	1.72%
COc1cccc(-c2noc(CCC(=O)N(C)C)n2)c1	5.82%
CCCOc1ccc(C2C3=C(O)c4ccccc4C3=Nc3c2c(=O)n(C)c(=O)n3C)cc1OC (stereo not shown)	7.16%
Cc1[nH]cnc1CN1C[C@@H]2C[C@H](C1)c1cccc(=O)n1C2	-3.63%
O=C(O)CCCc1nnc2n3nc(-c4ccccc4)nc3c3ccccc3n12	26.8%
COc1ccc(-c2ccc3c(N)c(C(=O)Nc4ccc(OC)cc4OC)sc3n2)cc1	2.44%

Structure (SMILES)	% Inhibition @ 10 uM
NS(=O)(=O)c1ccc(NC(=O)c2ccccc2C(=O)O)cc1	2.4%
CN(C)c1ccc2c3c(cccc13)C(=O)N(Cc1ccccc1)C2=O	2.69%
CCOc1ccc(C2=NN(c3ccccc3Cl)C(c3ccccc3F)C2)cc1 (stereo not shown)	-8.03%
COc1cc(OC)c(OC)cc1CN1CCN(C(=O)C(c2ccccc2)c2ccccc2)CC1	-6.91%
CC(=O)OC1CCC2(C)C(CCC3C4CC=C(/C(C)=N\O)C4(C)CCC32)C1 (stereo not shown)	2.22%
Cc1cc(C2C(C#N)=C(N)N(c3nc[nH]n3)C3=C2C(=O)CC(C)(C)C3)c(C)s1 (stereo not shown)	-3.63%
C=CCn1cnc2sc(C)c(-c3ccc(OCC)cc3)c2c1=O	-4.02%
CCN1CCN(C(=O)c2cnn(-c3ccccc3)c2NC(=O)c2ccccc2C)CC1	-3.41%
Cc1nc2nc(-c3ccco3)nn2c(O)c1C	-2.4%
COc1cc(OC)c(OC)cc1CN1CCN(Cc2ccco2)CC1	3.86%
CC(C)CCNC(=O)CCn1ccc2cc(S(=O)(=O)N3CCCC3)ccc21	-1.76%
Cc1nnc(N2C(=N)S/C(=C\c3ccccc3Cl)C2=O)s1	1.52%
O=C(CSCC(=O)Nc1ccc(Br)cc1)Nc1ccc(F)cc1	-5.92%
CC1CCCN(C(=O)Cn2cnc3c2c(=O)n(C)c(=O)n3C)C1 (stereo not shown)	-1.06%
Nc1c(C(=O)Nc2ccc(S(N)(=O)=O)cc2)sc2nc3c(cc12)CCCCC3	33.2%
CCN(CC)CC(=O)NC(C)c1ccccc1 (stereo not shown)	-3.57%
CC1CCc2c(sc(NC(=O)c3cc(F)c(F)cc3Cl)c2C(N)=O)C1 (stereo not shown)	-7.14%
CCc1ccc(-c2[nH]nc3nc(-c4cccc(OC)c4)cc(C(=O)O)c23)cc1	-5.11%
CCC1CCC(N2CCc3cc(OC)c(OC)cc3C2)CC1 (stereo not shown)	1.57%
CCOC(=O)N1CCN(C(=O)c2ccc3c(c2)ncn3C2CCCC2)CC1	-1.34%
NCC12CC3CC(C1)CC(c1ccc(N)cc1)(C3)C2	-9.91%
O=C1NCC2=C1C(c1ccc(Br)cc1)Nc1ccccc1N2 (stereo not shown)	-1.69%
CN(CCOC(=O)c1cccs1)Cc1ccccc1	2.38%
Brc1ccc(C2=NN(c3ccccc3)C(c3cccs3)C2)cc1 (stereo not shown)	-6.12%
Cc1ccc(OCC(=O)Nc2nc3c(C)cccc3s2)cc1	-1.88%
